Results on 28 molecules are retold here after the supplement of paper PMC8792480.

The list shows a part of the results. Most values come without repeats; read them as rough.

The subject of assay [1] is NCI-H460. Description: cell-surface PD-L1 MFI ratio relative to radiation alone (isotype-subtracted); higher = higher PD-L1 surface expression. Conditions: inducer: radiation 8 Gy; 10 µM; 24 h. On the procedure:
(§1)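 A549 and H460 NSCLC cells were treated with each library drug at 10 uM, then with radiation (8 Gy) or cisplatin (4 uM), and incubated for 24 h. Cell-surface PD-L1 was measured by flow cytometry as an MFI ratio: (MFI drug+inducer - MFI isotype)/(MFI inducer alone - MFI isotype). Hits were defined as ratio < 0.75.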

The test system of assay [2] is NCI-H460. Briefly: cell-surface PD-L1 MFI ratio relative to cisplatin alone (isotype-subtracted); higher = higher PD-L1 surface expression. Conditions: inducer: cisplatin 4 uM; 10 µM; 24 h. On the procedure: as §1
A further assay has as its system A549. Described as above. Conditions: inducer: cisplatin 4 uM; 10 µM; 24 h. On the procedure:
as §1
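Wherever cell-surface PD-L1 MFI ratio relative to radiation alone (isotype-subtracted) is given: surface PD-L1 on NSCLC cells stained with a PE-labelled anti-human PD-L1 antibody before flow cytometry, screening a library of roughly two hundred mostly kinase and epigenetic inhibitors.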

For the molecule `Nc1ccc2ncnc(NCCc3ccc(Oc4ccccc4)cc3)c2c1`, the “cell-surface PD-L1 MFI ratio” value in the assay on NCI-H460 [1] is inactive: 1.68; in the assay with NCI-H460 [2], inactive: 1.56.

On to `O=C(/C=C/c1cncc(F)c1)c1c(-c2ccccc2)c2cc(Cl)ccc2[nH]c1=O`, for which the “cell-surface PD-L1 MFI ratio” value in the assay on NCI-H460 [1] is inactive: 0.964; in the assay on NCI-H460 [2], inactive: 0.848.

Consider `O=C(/C=C/N1C[C@H]2C[C@@H]1CN2c1ccccn1)c1ccccc1O`, for which the “cell-surface PD-L1 MFI ratio” value is inactive: 0.929 in the assay with NCI-H460 [1], active: 0.38 in the assay on A549 and active: 0.636 in the assay with NCI-H460 [2].

For the molecule `CC(C)(C)c1cc(NC(=O)Nc2ccc(-c3cn4c(n3)sc3cc(OCCN5CCOCC5)ccc34)cc2)no1` [Quizartinib (AC220)], the “cell-surface PD-L1 MFI ratio” value was inactive: 1.03 in the assay with NCI-H460 [1] and inactive: 1.25 with NCI-H460 [2].

On to `CC1(C)CCC(CN2CCN(c3ccc(C(=O)NS(=O)(=O)c4ccc(NCC5CCOCC5)c([N+](=O)[O-])c4)c(Oc4cnc5[nH]ccc5c4)c3)CC2)=C(c2ccc(Cl)cc2)C1` [Venetoclax (ABT-199, GDC-0199)], for which the figures for the “cell-surface PD-L1 MFI ratio” value in the assay with NCI-H460 [1] and in the assay with NCI-H460 [2] were inactive: 2.03 and inactive: 1.06, respectively.

As to `FC(F)(F)c1ccc(CNc2ccc(Cc3c[nH]c4ncc(Cl)cc34)cn2)cn1` [Pexidartinib (PLX3397)], the “cell-surface PD-L1 MFI ratio” value was inactive: 0.887 in the assay on NCI-H460 [1] and inactive: 1.34 in the assay on NCI-H460 [2].

With `O=C(O)C(Cc1ccccc1[N+](=O)[O-])=NNc1nc(-c2ccc(Cl)c(Cl)c2)cs1` (mixture of isomers), the entries for the “cell-surface PD-L1 MFI ratio” value in the assay on NCI-H460 [1] and in the assay with NCI-H460 [2] were inactive: 1.13 and inactive: 1.06, respectively.

Regarding `COc1ccc(Oc2cc(NCCC(F)(F)F)c3ncc(-c4ccc(C(=O)NC5CC5)c(C)c4)n3n2)c(F)c1F`, the “cell-surface PD-L1 MFI ratio” value in the assay with NCI-H460 [1] is inactive: 0.911; in the assay with NCI-H460 [2] it was active: 0.632.

Turning to `CN(C)c1cccc(-c2c3c(=O)n(-c4ccccc4Cl)[nH]c3cc(=O)n2C)c1`, the results for the “cell-surface PD-L1 MFI ratio” value in the assay with NCI-H460 [1] and in the assay on NCI-H460 [2] were inactive: 1.02 and inactive: 1.34, respectively.

Consider `COc1cc(Nc2ncc3c(n2)-c2ccc(Cl)cc2C(c2c(F)cccc2OC)=NC3)ccc1C(=O)O` [Alisertib (MLN8237)], for which the “cell-surface PD-L1 MFI ratio” value with NCI-H460 [1] is inactive: 2.14; in the assay on NCI-H460 [2] it was inactive: 1.32.

For the molecule `CC1(C)[C@@H](O[C@H]2O[C@H](C(=O)O)[C@@H](O)[C@H](O)[C@H]2O[C@@H]2O[C@H](C(=O)O)[C@@H](O)[C@H](O)[C@H]2O)CC[C@]2(C)[C@H]3C(=O)C=C4[C@@H]5C[C@@](C)(C(=O)O)CC[C@]5(C)CC[C@@]4(C)[C@]3(C)CC[C@@H]12` [Glycyrrhizin (Glycyrrhizic Acid)], the “cell-surface PD-L1 MFI ratio” value was inactive: 0.929 in the assay on NCI-H460 [1] and inactive: 1.39 in the assay with NCI-H460 [2].

As for `CC(C)c1c(C(=O)Nc2ccccc2)c(-c2ccccc2)c(-c2ccc(F)cc2)n1CC[C@@H](O)C[C@@H](O)CC(=O)O` [Atorvastatin], the “cell-surface PD-L1 MFI ratio” value was inactive: 1.09 with NCI-H460 [1] and inactive: 0.976 in the assay on NCI-H460 [2].

Consider `CCNC(=O)c1noc(-c2cc(C(C)C)c(O)cc2O)c1-c1ccc(CN2CCOCC2)cc1` [Luminespib (AUY-922, NVP-AUY922)], for which the “cell-surface PD-L1 MFI ratio” value in the assay on NCI-H460 [1] was inactive: 0.863; in the assay with NCI-H460 [2] it was active: 0.492.

As for `Cc1ccc(-c2cc(C(F)(F)F)nn2-c2ccc(S(N)(=O)=O)cc2)cc1` [Celecoxib], the “cell-surface PD-L1 MFI ratio” value in the assay on NCI-H460 [1] was inactive: 1.43; in the assay with NCI-H460 [2], inactive: 1.1.

`Cc1nc(-c2cn3c(n2)-c2ccc(-c4cnn(C(C)(C)C(N)=O)c4)cc2OCC3)n(C(C)C)n1` [Taselisib (GDC 0032)]: the “cell-surface PD-L1 MFI ratio” value is active: 0.673 in the assay on NCI-H460 [1] and inactive: 0.793 in the assay on NCI-H460 [2].

In the case of `C=CC(=O)N1CCC[C@@H](n2nc(-c3ccc(Oc4ccccc4)cc3)c3c(N)ncnc32)C1` [Ibrutinib], the “cell-surface PD-L1 MFI ratio” value in the assay with NCI-H460 [1] is inactive: 1.4; with NCI-H460 [2], inactive: 1.65.

With `COc1cc2nc(N3CCCC3)nc(NCCCCCN3CCCC3)c2cc1OC`, the results for the “cell-surface PD-L1 MFI ratio” value with NCI-H460 [1] and in the assay on NCI-H460 [2] were inactive: 1.35 and inactive: 1.46, respectively.

For the molecule `Cc1cc(C)cc(Oc2ccc(CNC(=O)[C@H](C)N)cc2C)c1`, the “cell-surface PD-L1 MFI ratio” value is inactive: 1.71 with NCI-H460 [1] and active: 0.714 in the assay on NCI-H460 [2].

As for `CC(C)Oc1ccc(C(=O)N[C@H](CNC(=O)CN(C)C)Cc2ccc(-c3cn4cccc([C@H](C)O)c4n3)cc2)cc1Cl`, the results for the “cell-surface PD-L1 MFI ratio” value in the assay with NCI-H460 [1] and in the assay with NCI-H460 [2] were inactive: 1.99 and inactive: 0.832, respectively.

For the molecule `CCCc1cc(C)[nH]c(=O)c1CNC(=O)c1cc(-c2ccc(N3CCN(C(C)C)CC3)nc2)cc2c1cnn2C(C)C`, the figures for the “cell-surface PD-L1 MFI ratio” value in the assay on NCI-H460 [1] and in the assay on NCI-H460 [2] were inactive: 0.964 and active: 0.614, respectively.

With `CN1CCN(Cc2ccc(-c3cnc4[nH]cc(-c5ccc6[nH]ccc6c5)c4c3)cc2)CC1`, the “cell-surface PD-L1 MFI ratio” value in the assay on NCI-H460 [1] was active: 0.732; in the assay on NCI-H460 [2] it was inactive: 0.84.

On to `CCN(CC)CCNC(=O)c1c(C)[nH]c(/C=C2\C(=O)Nc3ccc(-c4csc(-c5ccccc5)n4)cc32)c1C` [Amcasertib (BBI503)], for which the “cell-surface PD-L1 MFI ratio” value in the assay on NCI-H460 [1] is inactive: 3.6; in the assay with NCI-H460 [2], inactive: 4.21.

Turning to `CCCCCCCCc1ccc(CCC(N)(CO)CO)cc1` [Fingolimod], the “cell-surface PD-L1 MFI ratio” value in the assay with NCI-H460 [1] was inactive: 0.768; in the assay with NCI-H460 [2], inactive: 1.07.

Turning to `Oc1c2ccccc2c2c3c(cccc13)N=N2`, the “cell-surface PD-L1 MFI ratio” value is inactive: 1.27 in the assay on NCI-H460 [1] and inactive: 1.34 with NCI-H460 [2].

On to `Nc1ncn([C@@H]2O[C@H](CO)[C@@H](O)[C@H]2O)c(=O)n1` [Azacitidine], for which the “cell-surface PD-L1 MFI ratio” value with NCI-H460 [1] was inactive: 1.61; in the assay on NCI-H460 [2] it was inactive: 0.856.

For the molecule `O=C([C@@H](Cc1cccc(C(F)(F)F)c1)NS(=O)(=O)c1cc(F)c2c(c1)CCNC2)N1CCCC1`, the “cell-surface PD-L1 MFI ratio” value in the assay with NCI-H460 [1] was inactive: 0.905; with NCI-H460 [2], active: 0.55.

Consider `Oc1nc(-c2ccc(C(F)(F)F)cc2)nc2c1CSCC2`, for which the “cell-surface PD-L1 MFI ratio” value is inactive: 1.35 in the assay on NCI-H460 [1] and inactive: 0.799 in the assay on NCI-H460 [2].

As for `Oc1ccc(Nc2nc(-c3ccc(Cl)cc3)cs2)cc1`, the “cell-surface PD-L1 MFI ratio” value is inactive: 1.26 in the assay on NCI-H460 [1] and active: 0.614 in the assay with NCI-H460 [2].
